PubChem BioAssay AID651820 (National Center for Advancing Translational Sciences (NCATS), 2012)
Screen size: about 340,000 compounds; about 12,000 (3.5%) were called active. This list was built around the results that the source calls inconclusive (neither active nor inactive); the mix of calls is not that of the screen. Calls follow the shape of the dose curve; as a rule, active = well fitted inhibition curve with a large enough effect; inconclusive = small, poorly fitted or top-dose-only effect, or another doubt; inactive = no such curve, though single readings can be large or run the other way. No potency is given beside an inconclusive call; the fits are too rough.

Assay: qHTS Assay for Inhibitors of Hepatitis C Virus (HCV)
Conditions: Huh7.5.1 HCVcc-Cre (HCVcc is cell-culture hepatitis C virus) infection, luciferase reporter, 44 h; series mostly up to 41.8 µM
Summary of the method: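 Antiviral activity was scored by luciferase reporter output from cells infected with HCVcc-Cre (~0.5 moi) in presence of compound, 44 h infection period, cells seeded 1,000/well 4 h prior.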
Potency is read from the fitted curve at half-maximal effect; tags tell the direction and shape of the fitted curve.

SMILES	Potency
CCC1Nc2ncnc(N3CCN(c4ccccc4)CC3)c2N(Cc2ccc(OC)cc2)C1=O (stereo not given)	active: 2.82 µM
CCOC(=O)C1CCN(C(=O)C2(NC(=O)Nc3ccccc3Cl)CCCCC2)CC1	inconclusive [inhibitor, single point]
Cc1cc(C(=O)OCC(=O)N2CCc3ccccc32)c(C)o1	inactive
CCc1ccccc1NC(=O)CNC(=O)c1cccc(S(=O)(=O)N2CCN(Cc3ccccc3)CC2)c1	active: 10 µM
N#Cc1cnc(SCCc2ccccc2)nc1N	active: 2.24 µM
Cc1cccc(C)c1NC(=O)CS(=O)CC(=O)Nc1ccc(F)cc1F (stereo not given)	inconclusive [inhibitor, single point]
O=C(NNC(=O)c1ccccc1O)c1ccccc1O	inconclusive [inhibitor, single point]
COc1ccc(C)cc1-n1nnnc1SCc1cc(=O)n2cc(C)ccc2n1	inconclusive [inhibitor, single point]
CCOC(=O)[C@H]1[C@H]2COc3cc(OC)ccc3[C@@H]2N2C(=O)CN(Cc3ccc(C)cc3)C(=O)[C@@]12C	inactive
Cc1ccc(Cl)cc1S(=O)(=O)N1CCC(C(=O)NC2CCN(Cc3ccccc3)CC2)CC1	inconclusive [inhibitor, partial curve]
COc1ccc(C=NN=C2c3ccccc3-c3ccccc32)cc1OC	inconclusive [inhibitor, single point]
COc1cc(C(=O)NCC(=O)Nc2c(C)cccc2C)ccc1OCC(=O)N1CCOCC1	inactive
Cc1ccccc1OCc1nc(-c2ccc(NC(=O)c3ccc4c(c3)OCO4)cc2)no1	inconclusive [inhibitor, full curve, poor fit]
CCc1cc2c3c(c1)C1(C(=O)N3C(C)(C)C=C2C)C(C#N)=C(N)Oc2[nH]c(=O)[nH]c(=O)c21 (stereo not given)	inconclusive [inhibitor, partial curve]
CCC(CC)COC(=O)C(C#N)c1nc2ccccc2nc1N1CCN(CC)CC1 (stereo not given)	inconclusive [inhibitor, single point]
O=S(=O)(Cc1ccccc1)c1ccccc1-c1nnc(-c2ccccc2)o1	inconclusive [inhibitor, single point]
Cc1noc(C)c1COc1ccc(C(=O)OCC(=O)N2CC3(C)CC2CC(C)(C)C3)cc1 (stereo not given)	inconclusive [inhibitor, single point]
O=C(Nc1ccccc1F)c1ccc(-n2cncn2)nc1	inactive
CC(C)Cc1nc(N2CCCCC2)c(C#N)c2c1CCC2	inactive
CCOC(=O)c1cc2c(C(F)(F)F)cc(-c3ccccc3)nc2o1	inconclusive [inhibitor, partial curve]
CCOC(=O)c1ccc(COC(=O)CNC(=O)CNC(=O)c2ccc(OC)cc2)o1	inconclusive [inhibitor, partial curve, poor fit]
CCn1c(O)c(/C=C2\C=NN=C2c2ccccc2)sc1=S	inconclusive [inhibitor, full curve]
O=C(c1ccc(Cl)cc1)C1C2C(=O)N(c3ccccc3)C(=O)C2C2CCCN21 (stereo not given)	inactive
N#Cc1ccccc1S(=O)(=O)N1CCN(C(=O)CCNS(=O)(=O)c2ccc(Cl)cc2)CC1	inactive

SMILES	Potency
O=C(CCCNC(=O)c1ccc(Cl)cc1)Nc1nccs1	inactive
Cc1n[nH]c(C)c1S(=O)(=O)N(CC(=O)N1CCc2ccccc21)c1ccc(C(C)C)cc1	inconclusive [inhibitor, single point]
Cc1cc(-c2ccc(Cl)cc2)c2cnn(C(C)C)c2n1	inconclusive [inhibitor, partial curve]
O=c1[nH]nc(Cc2ncc(C(F)(F)F)cc2Cl)c2ccccc12	inconclusive [inhibitor, single point]
COc1ccc(/C=C2\SC(=O)N(CC(=O)NCCCn3ccnc3)C2=O)cc1	inactive
COc1ccccc1C=NN=C(NN=Cc1ccccc1OC)NN=Cc1ccccc1OC	active: 12.6 µM
CCOC(=O)c1c(C)[nH]c(C2=NNC(=Nc3ccccc3OC)SC2)c1C	inconclusive [inhibitor, partial curve]
CCN(CCCNC(=O)CCc1nc(-c2ccc(OC)cc2)no1)c1cccc(C)c1	inconclusive [inhibitor, single point]
CN1CCc2c(sc(NC(=O)c3ccc(C(=O)c4ccccc4)cc3)c2C(N)=O)C1	inconclusive [inhibitor, single point]
Cc1ccc(NC(=O)c2sc3nc4c(c(-c5ccco5)c3c2N)CCC4)cc1	inconclusive [inhibitor, single point]
COc1cc(/C=N/NC(=O)CCN2CCN(C(c3ccccc3)c3ccccc3)CC2)ccc1O	active: 4.47 µM
CC(C)N1C(=O)S/C(=C/c2ccc(Sc3nc4ccccc4[nH]3)o2)C1=O	active: 10 µM
Cc1ccc(CNc2nc(-c3cccnc3)nc3ccccc23)cc1	inconclusive [inhibitor, single point]
CC(=O)NCc1ccc(C(=O)O)cc1	inactive
Cc1onc(-c2ccccc2)c1-c1ccnc(N)n1	inactive
Cc1ccc(S(=O)(=O)N2CCCCC2)cc1C(=O)N(C)CC(=O)Nc1cccc(F)c1	inconclusive [inhibitor, partial curve, poor fit]
COc1ccccc1N1CCN(c2ncnc3sc(C)c(-c4ccccc4)c23)CC1	inconclusive [inhibitor, single point]
COc1ccc2nc(C)cc(N3CCN(c4ccccc4)CC3)c2c1	active: 22.4 µM
CN(Cc1ccco1)C(=O)Cn1ncc2c([nH]c3ccccc32)c1=O	inconclusive [inhibitor, single point]
CN(CCNC(=O)C1CC(=O)N(c2ccc(F)c(Cl)c2)C1)Cc1ccccc1 (stereo not given)	inactive
OCC1CCCN(C(=S)NCCc2ccccc2)C1 (stereo not given)	inactive
COc1ccc(OC)c(Nc2nc(-c3c(C)nc4ncccn34)cs2)c1	inconclusive [inhibitor, partial curve]
COC(=O)c1ccn(-c2nc(-c3ccco3)cc(C(F)(F)F)n2)n1	inconclusive [inhibitor, single point]
COC(=O)N1[C@H](C)C=C[C@]1(Cc1ccccc1)C(=O)NCCCNc1ncc(C(F)(F)F)cc1Cl	inconclusive [inhibitor, full curve]

SMILES	Potency
Cc1cc(C(=O)CSc2nnc(NCc3ccccc3)s2)c(C)n1C	inconclusive [inhibitor, partial curve]
CN(C)S(=O)(=O)c1ccc(C(=O)NCc2nnc(SCC(=O)Nc3ccc(F)cc3)n2-c2ccc(F)cc2)cc1	inconclusive [inhibitor, single point]
Cc1cc(C)cc(NC(=O)C2C3C=CC4(O3)C2C(=O)N(CCCN2CCCC2)C4C(=O)NC2CCCC(C)C2C)c1 (stereo not given)	inactive
CCOC(=O)c1ccc(NC(=S)Nc2ccc(C)cc2)cc1	inconclusive [inhibitor, single point]
Cc1ccc(S(=O)(=O)N2CCN(C(=O)COc3ccc(Br)cc3)CC2)cc1	inactive
CCN(Cc1ccccc1)c1ccc(/C=N/NC(=O)c2cccc(S(=O)(=O)N3CCOCC3)c2)cc1	inconclusive [inhibitor, full curve]
COc1ccc(OCC(O)CN2CCN(c3ccc(Cl)cc3)CC2)cc1 (stereo not given)	inconclusive [inhibitor, partial curve]
O=c1ccn([C@@H]2O[C@H](CNCc3ccc(-c4cc(C(F)(F)F)ccc4Cl)o3)[C@@H](O)[C@H]2O)c(=O)[nH]1	inactive
O=C(O)Cn1c(=O)c(-c2ccccc2)nc2ccccc21	inactive
C[C@@H]1COC(=O)[C@H](Cc2ccc(F)cc2)CC/C=C/C[C@@H](CC(=O)N[C@@H](CO)Cc2ccccc2)C(=O)N1	inactive
COCCCNCCCCOc1ccc(Br)cc1C	active: 11.2 µM
COc1cc2c(cc1OC)C(c1ccc(C)o1)CC(=O)N2 (stereo not given)	inactive
Nc1nc(=S)c2ncn([C@@H]3O[C@H](CO)[C@@H](O)[C@H]3O)c2[nH]1	active: 2.24 µM
Oc1ccccc1-c1nnc2n1CCCCC2	inconclusive [inhibitor, single point]
O=C(CCC1CCCCC1)Nc1cccc(C(=O)Nc2ccc(C(=O)O)cc2)c1	inactive
CCc1ccc(NC(=O)Cn2c(=O)oc3cc(S(=O)(=O)N4CCOCC4)ccc32)cc1	inconclusive [inhibitor, single point]
COC(=O)c1cccc(NC(=O)CCNC(=O)c2ccco2)c1	inconclusive [inhibitor, single point]
CC(C)(C)n1nnnc1CN1CCC(NC(=O)NC2CCCCC2)CC1	inactive
O=C(NCC(c1ccco1)N1CCCC1)c1ccc(S(=O)(=O)Nc2ccc(F)cc2)cc1 (stereo not given)	inconclusive [inhibitor, single point]
COc1ccc(CCNC(=O)c2ccc3nc(N4CCOCC4)sc3c2)cc1OC	inactive
Cc1onc(-c2c(F)cccc2Cl)c1C(=O)N1CCN(c2ncc(Br)cn2)CC1	inconclusive [inhibitor, single point]
CCc1ccc2nc3nc(C)cc(C)c3c(N)c2c1	inconclusive [inhibitor, single point]
